Assay results: patent publication US20240124563A1

B1: NB149-81 VHH-hFc (Fc fusion)
chain: EVQLVESGGGLVQAGGALRLSCAASERTFSSSSMGWFRQAPGKEREFVAAINRIGGHIYYADSVKGRFTISKDNAKNTVYLQMSSLKPEDTAVYYCASSRIYSHSARDYDYWGQGTQVTVSS[human IgG1 Fc with changes not written out]
B2: NB148-88 VHH-hFc (Fc fusion)
chain: QLQLVESGGGLVQPGGSHRLSCAVSVSTFTRYAMRWYRQAPGKEREWLTSIYSDGSSAYADSVKDRFTISLDNAKNMLYLQMNSLKPEDTAVYYCNANVDSKAYWGQGTQVTVAS[human IgG1 Fc with changes not written out]
B3: NB149-70 VHH-hFc (Fc fusion)
chain: QVQLVESGGGLVQPGGSLRLSCAASGSIFSGNAVAWYRQAPGKEREAVAVITRDGDTKYADSVKGRFTISRYNAKNIAYLQMNSLKPEDTAVYYCNTARGAAVDSWGQGTQVTVSS[human IgG1 Fc with changes not written out]
B4: NB149-31 VHH-hFc (Fc fusion)
chain: EVQVVESGGGLVQPGGSLRLSCAASGITFSGNYGGWFRQAPGEQRELVASMSSALGTKYADPVKGRFTISTDTAKNTVDLQMNSLGPEDTAVYYCYARVRLSRGGWGSEYWGQGTQVTVSS[human IgG1 Fc with changes not written out]
B5: NB148-46 VHH-hFc (Fc fusion)
chain: EVQLVESGGGLVQAGGSLRLSCAASGSTFSSYPMGWYRQAPGKQRELVAAISSGGSTNYADSVKGRFTISRDNAKNTVYLQMNSLKPEDTAVYYCNTRSPRVPNDSWGQGTQVTVSS[human IgG1 Fc with changes not written out]
B6: NB149-97 VHH-hFc (Fc fusion)
chain: EVQVVESGGGLVQAGGGLRLSCAASERTFSSSSIGWFRQAPGKEREFVATMNRIGGHTFYADPVKGRFTISRDNAANTVYLQMSSLKPEDAAVYYCASSRIYSHSPRDYDYWSQGTQVTVSS[human IgG1 Fc with changes not written out]
B7: NB148-25 VHH-hFc (Fc fusion)
chain: QVQLVESGGGLVQAGGSLRLSCAASGSTFGRIVMRWYRQAQGKQREWVASIYDSGSTSYSDPVQGRFTISRDNARNTVYLQMNSLRPADTAVYYCNLGTALSSYWGQGTQVTVSS[human IgG1 Fc with changes not written out]
B8: NB148-13 VHH-hFc (Fc fusion)
chain: QLQLVESGGGLVQAGGSLRLSCTASGSTSMSYGAKWFRRAPGKEREWVASVYRDGTTGYDDSVKGRFTISRDLAKNTVYLQMNSLRLEDTAVYYCTALNSWGQGTQVTVSS[human IgG1 Fc with changes not written out]
B9: NB148-35 VHH-hFc (Fc fusion)
chain: EVQVVESGGGLVQPGGSLRLSCGVSGSILALNTMRWYRQTPGNQREWVASIYSSGGSTGYADSVKGRFIISRDSAKNMMSLQMNSLKSEDTAVYYCNVQTPLNVYWGQGTQVTVSS[human IgG1 Fc with changes not written out]
B10: NB149-95 VHH-hFc (Fc fusion)
chain: QVQLVESGGGLVQAGGSLRLSCTASESGFSANYMGWYRQEAPGKERELVATINRFGSTNYADSVKGRFTISRDNAKNTVYLQMNSLKSEDTGVYYCRIMRPGNWYWGQGTQVTVSS[human IgG1 Fc with changes not written out]
B11: NB148-27 VHH-hFc (Fc fusion)
chain: EVQVVESGGGLVQAGASLRLSCASSGRTISPIAMAWFRQAPGKERELVAGLTWTGRTYYSDSVKGRFTISRDNAKNTVYLQMDSLKFEDTAVYFCAAGDNPDRRGSSWSSSSVYEYWGQGTQVTVSS[human IgG1 Fc with changes not written out]
B12: NB149-34 VHH-hFc (Fc fusion)
chain: QLQLVESGGGLVQPGGSLRLSCAASGSVNSITAMGWYRQGPGNERELVAVITDRGRASYADSVKGRFAISMDNDKHTVYLQMDSLKPEDTAVYYCNAHRRTWPHPGDYWGQGTQVTVSS[human IgG1 Fc with changes not written out]

Target: monkey MSLN full-length protein on HEK293T cells (monkey)
Assay: FACS, HEK293T-monkey MSLN cells

Sequence of monkey MSLN full-length protein on HEK293T cells (monkey) (chain, as listed by the source limits assumed, form in doubt): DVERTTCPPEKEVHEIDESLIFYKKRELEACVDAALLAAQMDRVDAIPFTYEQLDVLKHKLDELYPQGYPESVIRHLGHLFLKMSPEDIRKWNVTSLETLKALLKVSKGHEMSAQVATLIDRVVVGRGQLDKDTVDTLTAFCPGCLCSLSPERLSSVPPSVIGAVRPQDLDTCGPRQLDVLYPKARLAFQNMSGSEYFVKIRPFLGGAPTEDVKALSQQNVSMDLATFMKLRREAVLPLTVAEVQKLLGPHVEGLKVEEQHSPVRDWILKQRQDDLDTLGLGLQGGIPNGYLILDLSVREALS

Max MFI	EC50 [nM]	Binder
5630		B1
136		B2
16900	0.91	B3
16600	0.89	B4
15600	0.88	B5
1520		B6
78		B7
106		B8
89		B9
20100	1.96	B10
16700	1.57	B11
16000	0.88	B12
